In PubChem BioAssay (NCATS):
Some of the results follow. These are further read-outs of the screen, such as a control signal, another cell line or another target. No call is given for them. Most of these compounds were active or inconclusive in the main read-out, so they are no random draw. The note in brackets gives the kind of curve behind each potency; many fits are weak.

Target: Catechol O-methyltransferase (Homo sapiens) (UniProt P21964)
Assay: Confirmatory Screen for Target Class Profiling of Small Molecule Inhibitors of Methyltransferases (AID 1745852);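 also: inhibitor potency for blocking SAH production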
Conditions: MTase-Glo luminescence, SAH detection, recombinant enzyme; measured here: COMT inhibition potency
Tags tell the direction and shape of the fitted curve.

Chain of UniProt P21964 (P21964 whole entry, looked up): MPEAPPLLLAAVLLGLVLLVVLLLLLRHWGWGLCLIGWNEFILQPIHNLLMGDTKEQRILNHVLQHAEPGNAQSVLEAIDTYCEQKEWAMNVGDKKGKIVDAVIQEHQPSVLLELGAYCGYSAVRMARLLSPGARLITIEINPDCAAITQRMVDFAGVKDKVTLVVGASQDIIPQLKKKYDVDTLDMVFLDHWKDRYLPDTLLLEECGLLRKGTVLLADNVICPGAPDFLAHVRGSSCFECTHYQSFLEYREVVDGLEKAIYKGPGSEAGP

Compound | IC50
O=C(/C=C/c1ccccc1)OC[C@H]1O[C@@H](OC(=O)c2cc(O)c(O)c(O)c2)[C@H](O)[C@@H](O)[C@@H]1O | 0.418 µM [falling, full curve]
C=C(C(=O)O)[C@@H]1CC[C@@]2(C)CC[C@H](O)[C@@]2(C(C)=O)C1 | 19.2 µM [falling, partial curve]
C[C@@H]1O[C@@H](O[C@H]2[C@H](OC(=O)C34CCC(C)(C)CC3C3=CCC5C6(C)CC(O)C(O[C@@H]7O[C@H](CO)[C@@H](O)[C@H](O)[C@H]7O)C(C)(C(=O)O)C6CCC5(C)C3(CO)CC4)O[C@H](C)[C@H](O)[C@@H]2O)[C@H](O)[C@H](O)[C@H]1O[C@@H]1OC[C@@H](O)[C@H](O)[C@H]1O (some centres not stated) | 4.58 µM [falling, partial curve]
CN(C)CCCCCCNC(=O)c1cccc(-c2cc(O)c3ncccc3c2)c1 | 3.43 µM [falling, full curve]
O=c1cc(O)cc(/C=C\c2ccc(O)c(O)c2)o1 | 1.72 µM [rising, full curve]
C[C@](Cc1ccc(O)c(O)c1)(NN)C(=O)O | 7.69 µM [rising, partial curve]
CC1(C)CC[C@]2(C(=O)O[C@@H]3O[C@H](CO)[C@@H](O)[C@H](O)[C@H]3O)CC[C@]3(C)C(=CCC4[C@@]5(C)C[C@@H](O)[C@H](O)[C@@](C)(CO)C5CC[C@]43C)C2C1 (some centres not stated) | 1.8 µM [falling, full curve]
CC1=C(CCC(C)O[C@@H]2O[C@H](CO)[C@@H](O)[C@H](O)[C@H]2O)C(C)(C)CCC1=O (some centres not stated) | 6.67 µM [falling, partial curve]
CC(C)CCC1(O)C(=O)C(C)(C)C(O[C@@H]2O[C@H](CO)[C@@H](O)[C@H](O)[C@H]2O)C(C)(C)C1O (some centres not stated) | 3.32 µM [falling, full curve]
COC(=O)C1=CO[C@@H](O[C@@H]2O[C@H](CO)[C@@H](O)[C@H](O)[C@H]2O)[C@H]2[C@@H]1CC(OC)O[C@@H]2C (some centres not stated) | 6.63 µM [falling, partial curve]
C=C1C(=O)OC2C1CCC(=C)C1CC(OC(C)=O)C(=C)C12 (configuration not stated) | 19.2 µM [falling, partial curve]
CC1(CO)CC[C@]2(C(=O)O[C@@H]3O[C@H](CO)[C@@H](O)[C@H](O)[C@H]3O)CC[C@]3(C)C(=CCC4[C@@]5(C)C[C@H](O)[C@H](O[C@@H]6OC[C@@H](O)[C@H](O)[C@H]6O)[C@@](C)(CO)C5CC[C@]43C)C2C1 (some centres not stated) | 4.08 µM [falling, partial curve]
Cc1ccc(-c2ccc(N)nc2)c2cccnc12 | 19.2 µM [falling, partial curve]
CC1=CC(=O)C(=C(C)C)CC2C(C)(O)CCC12O (configuration not stated) | 1.52 µM [falling, full curve]
Oc1cc(CNC(=S)/C=C/c2cc(O)c(O)c(Br)c2)cc(O)c1O | 27.1 µM [falling, partial curve]
CC1CC(O)C2(C)C(C(=O)O)=CCCC2C1(C)CCc1ccoc1 (configuration not stated) | 3.34 µM [falling, full curve]
C=C1[C@H]2[C@H](O[C@@H]3O[C@H](COC(=O)/C=C/c4cc(OC)c(O)c(OC)c4)[C@@H](O)[C@H](O)[C@H]3O)OC=C(C(=O)O)[C@H]2C[C@@H]1O | 3.2 µM [falling, partial curve]
CC1(C)O[C@@]2(C)CC[C@@H]1C[C@@H]2OC1OC(CO)C(O)C(O)C1O (some centres not stated) | 4.72 µM [falling, partial curve]
COc1ccc(-c2cnc3ccc(NCc4ccc(S(N)(=O)=O)cc4)nn23)cc1OC | 24.1 µM [falling, partial curve]
C=C[C@H]1[C@H](O[C@@H]2O[C@H](CO)[C@@H](O)[C@H](O)[C@H]2O)OC=C(C(=O)OC)[C@H]1C/C=C(/C=O)[C@@H]1C(C(=O)OC)=CO[C@@H](O[C@@H]2O[C@H](CO)[C@@H](O)[C@H](O)[C@H]2O)[C@@H]1C=C | 4.03 µM [falling, partial curve]
CC1=CC(=O)C2C(C)(C)CCCC2(C)C12CCC1(COC(=O)C1)O2 (configuration not stated) | 1.88 µM [falling, full curve]
C[C@]12C[C@@H](O)[C@@H]3C[C@@]1(O[C@@H]1O[C@H](CO)[C@@H](O)[C@H](O)[C@H]1O)[C@]3(COC(=O)c1ccccc1)C(=O)O2 | 2.64 µM [falling, full curve]
